Measurements: PMC3398040
Results are given in words; binding and its absence hold for the method and conditions named. Binding seen in cells or lysates may run through a third protein. Some entries that bind do so weakly or less than the wild type. Tags and fused reporters may be left off the sequences shown. Each block holds one binder with its values, some of them ahead of it.

Columns and labels:
[1] = biological target: T1, GST-tagged Cdc53 (^GSTCdc53) (S. cerevisiae) (UniProt Q12018); assay: pull-down; recombinant GST fusion on GSH beads incubated with bacterial lysate holding a HIS-tagged protein; Western blot (Figures 1C, 3C, 3D, 5D, 5E with Rpn1 alone); only the target purified
T1 sequence: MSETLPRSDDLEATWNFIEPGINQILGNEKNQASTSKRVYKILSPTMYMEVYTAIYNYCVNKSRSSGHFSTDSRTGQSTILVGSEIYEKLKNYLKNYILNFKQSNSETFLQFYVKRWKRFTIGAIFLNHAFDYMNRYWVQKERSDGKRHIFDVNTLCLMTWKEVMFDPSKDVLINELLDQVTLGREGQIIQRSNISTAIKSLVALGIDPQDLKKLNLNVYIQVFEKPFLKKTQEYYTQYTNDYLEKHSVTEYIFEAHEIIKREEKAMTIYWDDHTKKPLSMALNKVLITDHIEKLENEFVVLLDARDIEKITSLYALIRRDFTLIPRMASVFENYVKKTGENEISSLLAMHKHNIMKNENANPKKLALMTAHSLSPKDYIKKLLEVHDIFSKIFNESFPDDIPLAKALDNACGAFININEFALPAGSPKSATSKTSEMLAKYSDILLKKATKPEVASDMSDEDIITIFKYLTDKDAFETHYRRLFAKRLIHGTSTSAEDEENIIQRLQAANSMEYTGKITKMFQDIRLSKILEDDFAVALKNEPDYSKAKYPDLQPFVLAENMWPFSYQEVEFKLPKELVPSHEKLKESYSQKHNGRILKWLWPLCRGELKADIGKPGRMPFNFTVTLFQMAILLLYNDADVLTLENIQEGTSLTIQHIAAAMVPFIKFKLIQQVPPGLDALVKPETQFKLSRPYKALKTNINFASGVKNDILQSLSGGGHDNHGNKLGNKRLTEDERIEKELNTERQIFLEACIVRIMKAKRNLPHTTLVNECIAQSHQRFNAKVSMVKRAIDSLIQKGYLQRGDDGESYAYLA

[2] = biological target: T2, GST-tagged Rpn1 (^GSTRpn1) (yeast) (UniProt P38764); assay: as above
T2 sequence: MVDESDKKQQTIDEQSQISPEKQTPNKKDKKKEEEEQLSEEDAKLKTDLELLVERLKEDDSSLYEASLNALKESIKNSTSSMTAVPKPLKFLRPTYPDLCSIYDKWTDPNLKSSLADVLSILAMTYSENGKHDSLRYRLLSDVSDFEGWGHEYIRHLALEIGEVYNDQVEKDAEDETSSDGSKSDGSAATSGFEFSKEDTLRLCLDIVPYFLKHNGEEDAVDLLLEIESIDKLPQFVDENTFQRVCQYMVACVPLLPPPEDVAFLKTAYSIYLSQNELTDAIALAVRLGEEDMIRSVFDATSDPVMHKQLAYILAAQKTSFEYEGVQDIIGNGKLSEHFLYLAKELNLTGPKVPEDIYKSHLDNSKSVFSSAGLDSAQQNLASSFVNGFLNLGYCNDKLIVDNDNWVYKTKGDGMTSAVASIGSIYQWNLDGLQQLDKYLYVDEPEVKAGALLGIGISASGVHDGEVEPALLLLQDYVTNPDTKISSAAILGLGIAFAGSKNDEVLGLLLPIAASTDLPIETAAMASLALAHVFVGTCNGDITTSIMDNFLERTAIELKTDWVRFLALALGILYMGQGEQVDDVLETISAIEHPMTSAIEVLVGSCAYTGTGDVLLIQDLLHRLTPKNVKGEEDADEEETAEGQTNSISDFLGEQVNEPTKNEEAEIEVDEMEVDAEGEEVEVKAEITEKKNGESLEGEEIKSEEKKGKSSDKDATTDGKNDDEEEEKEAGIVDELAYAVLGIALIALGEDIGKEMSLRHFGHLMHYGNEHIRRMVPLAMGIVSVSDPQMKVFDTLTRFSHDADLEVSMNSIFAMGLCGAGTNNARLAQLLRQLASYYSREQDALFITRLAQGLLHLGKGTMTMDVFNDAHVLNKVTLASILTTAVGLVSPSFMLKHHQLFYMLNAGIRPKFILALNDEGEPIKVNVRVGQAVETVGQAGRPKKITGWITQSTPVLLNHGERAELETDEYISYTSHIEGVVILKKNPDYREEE

[3] = biological target: T3, GST-tagged Rpn10 (^GSTRpn10) (yeast) (UniProt P38886); assay: as above
T3 sequence: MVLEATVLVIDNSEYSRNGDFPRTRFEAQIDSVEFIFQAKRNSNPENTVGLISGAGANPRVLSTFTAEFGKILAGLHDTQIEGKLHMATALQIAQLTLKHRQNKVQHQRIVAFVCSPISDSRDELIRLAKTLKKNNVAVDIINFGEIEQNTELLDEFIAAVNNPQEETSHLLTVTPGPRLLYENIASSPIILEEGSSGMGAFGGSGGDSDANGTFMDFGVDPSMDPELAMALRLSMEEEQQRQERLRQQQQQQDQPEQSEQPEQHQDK

[4] = biological target: T4, HIS-tagged Ddi1 (^HISDdi1) (yeast), P40087; assay: pull-down; HIS-Ddi1 on Ni beads incubated with Ufo1 (GST-Ufo1 lysate or GFP-Ufo1 extract) together with GST-Rpn1 lysate at x1 or x2, no Ho (Figure 5A lane 7, Figure 5B lanes 5 and 6, Figure 5C); only the target purified; conditions: remark: other sources report otherwise
T4 chain: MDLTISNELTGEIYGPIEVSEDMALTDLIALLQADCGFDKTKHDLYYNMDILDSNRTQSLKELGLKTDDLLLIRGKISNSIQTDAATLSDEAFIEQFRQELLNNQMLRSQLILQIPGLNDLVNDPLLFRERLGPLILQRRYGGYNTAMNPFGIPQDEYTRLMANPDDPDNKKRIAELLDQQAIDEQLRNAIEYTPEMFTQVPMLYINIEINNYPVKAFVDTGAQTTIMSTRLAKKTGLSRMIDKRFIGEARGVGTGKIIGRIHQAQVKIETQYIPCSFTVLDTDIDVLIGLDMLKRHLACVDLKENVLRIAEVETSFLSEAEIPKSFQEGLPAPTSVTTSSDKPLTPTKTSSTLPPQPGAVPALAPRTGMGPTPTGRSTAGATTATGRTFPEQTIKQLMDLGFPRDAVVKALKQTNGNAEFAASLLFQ

[5] = biological target: T4, HIS-tagged Ddi1 (^HISDdi1) (yeast), …; assay: pull-down; HIS-Ddi1 on Ni beads incubated with one lysate or extract alone (GST-Rpn1 or GST-Ufo1 bacterial lysate, GFP-Ho or GFP-Ufo1 yeast extract); washed with 2.5% Triton X100 and 100 mM imidazole (Figure 5A lanes 4-6, Figure 5B lanes 3 and 4); only the target purified; conditions: remark: other sources report otherwise
[6] = biological target: T4, HIS-tagged Ddi1 (^HISDdi1) (yeast), …; assay: pull-down; HIS-Ddi1 on Ni beads incubated with GST-Ufo1 and/or GST-Rpn1 lysate together with yeast extract with ubiquitylated GFP-Ho (Figure 5A lanes 8-10); only the target purified; conditions: remark: other sources report otherwise
[7] = biological target: T4, HIS-tagged Ddi1 (^HISDdi1) (yeast), …; assay: pull-down; HIS-Ddi1 or HIS-ΔΔDdi1 on Ni beads incubated with a constant amount of GFP-Ufo1 yeast extract and x3 the amount of GST-Rpn1 lysate (Figure 5B); only the target purified; conditions: remark: other sources report otherwise
[8] = biological target: T4, HIS-tagged Ddi1 (^HISDdi1) (yeast), …; assay: pull-down; HIS-Ddi1 on Ni beads incubated with GST-Ufo1 lysate mixed with increasing amounts of GST-Rpn10 lysate (Figure 5C); only the target purified; conditions: remark: other sources report otherwise
[9] = biological target: T5, GST-tagged Rpn1 (^GSTRpn1) (yeast), P38764; assay: pull-down; GST-Rpn1, GST-Rpn10 or GST on GSH beads incubated with yeast extract with myc-Cdc53 and GFP-Ho mixed with bacterial lysate with HIS-Ufo1 (Figure 3B); only the target purified; conditions: remark: other sources report otherwise
T5 chain: T2 sequence

[10] = biological target: T6, HIS-tagged Rpn1 (^HISRpn1) (yeast), P38764; assay: co-IP; as a6 but yeast extract without GFP-Ho; immunoprecipitated with anti-myc, anti-GST or anti-HIS (Figure 4, - Ho); conditions: remark: other sources report otherwise
T6 chain: T2 sequence

[11] = biological target: T6, HIS-tagged Rpn1 (^HISRpn1) (yeast), …; assay: co-IP; bacterial lysates with HIS-Rpn1 and GST-Ufo1 mixed with yeast extract with myc-Cdc53 and GFP-Ho; aliquots immunoprecipitated with anti-myc, anti-GFP, anti-GST or anti-HIS and Protein A beads (Figure 4, + Ho); conditions: remark: other sources report otherwise

binding [1]: binds
binding [2]: binds
binding [3]: binds weakly
B1: HIS-tagged core of Ddi1 without the UbL and UbA domains (^HISΔΔDdi1) (domain or fragment, UniProt P40087 180-325)
chain: QQAIDEQLRNAIEYTPEMFTQVPMLYINIEINNYPVKAFVDTGAQTTIMSTRLAKKTGLSRMIDKRFIGEARGVGTGKIIGRIHQAQVKIETQYIPCSFTVLDTDIDVLIGLDMLKRHLACVDLKENVLRIAEVETSFLSEAEIPK

binding [4]: binds
binding [5]: binds
binding [6]: binds
binding [7]: binds
B2: GST-tagged Rpn1 (^GSTRpn1), P38764 1-993 (protein)
chain: T2 sequence

binding [8]: binds
B3: GST-tagged Rpn10 (^GSTRpn10), P38886 1-268 (protein)
chain: T3 sequence

binding [9]: binds
binding [10]: binds
binding [11]: binds
B4: endogenous Ddi1, P40087 1-428 (protein)
chain: T4 chain
